Assay results as given in the supplement of paper PMC11876631.
Substitutions are numbered along the chain they refer to. Names and notes keep the numbering of the source. ± gives the standard deviation of the averaged measurements. Laboratory Escherichia coli strains with one amino-acid change in an essential protein, pooled on minimal glucose agar with carbenicillin or gentamicin at twice the control MIC (plus kanamycin and chloramphenicol for the plasmids), 48 h. Fold change of barcode share against drug-free plates; higher = less susceptible. Active = above 20 in both replicates (the paper's putatively resistant). '<' = one read or none on drug, '>' = one read or none on a drug-free plate. Shares are relative, so most strains fall below 1 when a few take over. Listed are strains with at least 15 reads on both drug-free plates, and hits; most hits rest on fewer reference reads. Replicate rank correlation about 0.5. Edits are read from barcodes.

B1: fabD V261A (protein)
chain: MTQFAFVFPGQGSQTVGMLADMAASYPIVEETFAEASAALGYDLWALTQQGPAEELNKTWQTQPALLTASVALYRVWQQQGGKAPAMMAGHSLGEYSALVCAGVIDFADAVRLVEMRGKFMQEAVPEGTGAMAAIIGLDDASIAKACEEAAEGQVVSPVNFNSPGQVVIAGHKEAVERAGAACKAAGAKRALPLPVSVPSHCALMKPAADKLAVELAKITFNAPTVPVVNNVDVKCETNGDAIRDALVRQLYNPVQWTKSAEYMAAQGVEHLYEVGPGKVLTGLTKRIVDTLTASALNEPSAMAAALEL
B2: fabD I243D (protein)
chain: B1 chain with I243D, A261V
B3: fabD V261Q (protein)
chain: B1 chain with A261Q
B4: fabD I243A (protein)
chain: B1 chain with I243A, A261V
B5: fabD I243W (protein)
chain: B1 chain with I243W, A261V
B6: fabD V261P (protein)
chain: B1 chain with A261P
B7: fabD V255P (protein)
chain: B1 chain with V255P, A261V
B8: fabD I243P (protein)
chain: B1 chain with I243P, A261V
B9: fabD V255A (protein)
chain: B1 chain with V255A, A261V
B10: fabD I243Q (protein)
chain: B1 chain with I243Q, A261V
B11: fabD V261W (protein)
chain: B1 chain with A261W
B12: fabG V69Q (protein)
chain: MNFEGKIALVTGASRGIGRAIAETLAARGAKVIGTATSENGAQAISDYLGANGKGLMLNVTDPASIESQLEKIRAEFGEVDILVNNAGITRDNLLMRMKDEEWNDIIETNLSSVFRLSKAVMRAMMKKRHGRIITIGSVVGTMGNGGQANYAAAKAGLIGFSKSLAREVASRGITVNVVAPGFIETDMTRALSDDQRAGILAQVPAGRLGGAQEIANAVAFLASDEAAYITGETLHVNGGMYMV
B13: argA L59A (protein)
chain: MVKERKTELVEGFRHSVPYINTHRGKTFVIMLGGEAIEHENFSSIVNDIGLLHSLGIRAVVVYGARPQIDANLAAHHHEPLYHKNIRVTDAKTLELVKQAAGTLQLDITARLSMSLNNTPLQGAHINVVSGNFIIAQPLGVDDGVDYCHSGRIRRIDEDAIHRQLDSGAIVLMGPVAVSVTGESFNLTSEEIATQLAIKLKAEKMIGFCSSQGVTNDDGDIVSELFPNEAQARVEAQEEKGDYNSGTVRFLRGAVKACRSGVRRCHLISYQEDGALLQELFSRDGIGTQIVMESAEQIRRATINDIGGILELIRPLEQQGILVRRSREQLEMEIDKFTIIQRDNTTIACAALYPFPEEKIGEMACVAVHPDYRSSSRGEVLLERIAAQAKQSGLSKLFVLTTRSIHWFQERGFTPVDIDLLPESKKQLYNYQRKSKVLMADLG
B14: argA L59W (protein)
chain: B13 chain with A59W

Molecular target: Escherichia coli (laboratory strain)
Assay: barcode share on antibiotic plates over drug-free plates; higher = less susceptible
Conditions: antibiotic: carbenicillin; 2× MIC (3.1 µg/mL)
Procedure: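 A pool of E. coli strains, each edited to carry one amino-acid change in an essential protein, was grown for 48 h on minimal glucose agar with or without antibiotic; strain barcodes were sequenced; mean of two replicates.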

Protein | fold change of barcode share
B1 | 0.114 ± 0.02
B2 | 0.313 ± 0.15
B3 | 0.223 ± 0.022
B4 | 0.539 ± 0.51
B5 | 1.44 ± 0.64
B6 | 0.301 ± 0.19
B7 | 0.694 ± 0.74
B8 | 0.23 ± 0.09
B9 | 0.312 ± 0.07
B10 | 0.573 ± 0.43
B11 | 1.99 ± 1.4
B12 | 0.319 ± 0.17
B13 | 0.311 ± 0.041
B14 | 0.339 ± 0.027

Same assay, conditions: antibiotic: gentamicin; 2× MIC (MIC 0.45 µg/mL)

Protein | fold change of barcode share
B1 | 0.11 ± 0.14
B2 | 0.00981 ± 0.0053
B4 | < 0.0125
B5 | < 0.00904
B6 | 0.474 ± 0.66
B7 | < 0.00332
B8 | < 0.00943
B9 | < 0.0055
B10 | < 0.00798
B11 | < 0.0138
B13 | 0.00925 ± 0.0044
B14 | 0.0091 ± 0.00028
